What all share (experiment): two-hybrid; separate yeast two-hybrid method, as described in Luck et al., 2020; EROS against the NOX family and p22phox
Experiment [1] addresses T1, NOX4, yeast two-hybrid fusion (method of Luck et al., 2020) (UniProt Q9NPH5).
T1 sequence: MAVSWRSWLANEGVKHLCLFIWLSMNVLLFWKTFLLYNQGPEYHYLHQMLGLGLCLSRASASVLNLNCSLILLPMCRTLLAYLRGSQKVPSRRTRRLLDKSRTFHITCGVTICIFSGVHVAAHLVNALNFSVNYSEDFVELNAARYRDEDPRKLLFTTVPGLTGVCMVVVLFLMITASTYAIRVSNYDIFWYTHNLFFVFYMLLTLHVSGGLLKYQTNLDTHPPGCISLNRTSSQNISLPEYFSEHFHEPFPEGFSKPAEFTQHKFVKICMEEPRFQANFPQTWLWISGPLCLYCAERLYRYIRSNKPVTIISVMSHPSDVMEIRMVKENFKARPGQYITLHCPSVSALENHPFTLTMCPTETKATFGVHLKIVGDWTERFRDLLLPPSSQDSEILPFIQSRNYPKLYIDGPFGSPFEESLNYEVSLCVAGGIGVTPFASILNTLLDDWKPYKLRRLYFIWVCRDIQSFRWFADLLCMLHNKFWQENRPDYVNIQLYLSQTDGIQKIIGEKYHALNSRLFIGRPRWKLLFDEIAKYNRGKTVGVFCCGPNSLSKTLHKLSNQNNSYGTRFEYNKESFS

Experiment [2] addresses T2, NOX5, yeast two-hybrid fusion (method of Luck et al., 2020) (UniProt Q96PH1).
T2 sequence: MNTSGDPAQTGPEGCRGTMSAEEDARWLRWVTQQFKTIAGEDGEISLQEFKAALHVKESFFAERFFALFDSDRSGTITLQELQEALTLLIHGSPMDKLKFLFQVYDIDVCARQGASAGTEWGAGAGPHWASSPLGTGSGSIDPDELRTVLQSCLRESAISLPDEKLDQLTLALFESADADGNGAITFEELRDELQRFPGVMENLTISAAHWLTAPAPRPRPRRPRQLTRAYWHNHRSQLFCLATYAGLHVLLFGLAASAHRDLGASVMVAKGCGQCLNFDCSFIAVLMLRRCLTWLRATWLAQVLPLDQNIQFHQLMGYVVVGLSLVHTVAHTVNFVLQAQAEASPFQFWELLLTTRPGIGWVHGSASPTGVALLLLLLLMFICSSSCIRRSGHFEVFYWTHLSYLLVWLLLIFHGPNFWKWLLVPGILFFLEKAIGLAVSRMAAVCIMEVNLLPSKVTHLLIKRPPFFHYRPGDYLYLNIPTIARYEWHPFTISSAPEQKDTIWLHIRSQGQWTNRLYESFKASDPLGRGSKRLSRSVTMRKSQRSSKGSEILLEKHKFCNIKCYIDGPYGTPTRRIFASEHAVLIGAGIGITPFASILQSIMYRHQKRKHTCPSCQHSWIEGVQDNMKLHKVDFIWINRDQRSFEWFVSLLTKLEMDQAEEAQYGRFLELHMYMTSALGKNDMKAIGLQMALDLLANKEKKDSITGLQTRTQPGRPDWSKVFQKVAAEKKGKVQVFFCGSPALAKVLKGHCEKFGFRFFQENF

The target of experiment [3] is T3, NOX3, yeast two-hybrid fusion (method of Luck et al., 2020) (UniProt Q9HBY0).
T3 sequence: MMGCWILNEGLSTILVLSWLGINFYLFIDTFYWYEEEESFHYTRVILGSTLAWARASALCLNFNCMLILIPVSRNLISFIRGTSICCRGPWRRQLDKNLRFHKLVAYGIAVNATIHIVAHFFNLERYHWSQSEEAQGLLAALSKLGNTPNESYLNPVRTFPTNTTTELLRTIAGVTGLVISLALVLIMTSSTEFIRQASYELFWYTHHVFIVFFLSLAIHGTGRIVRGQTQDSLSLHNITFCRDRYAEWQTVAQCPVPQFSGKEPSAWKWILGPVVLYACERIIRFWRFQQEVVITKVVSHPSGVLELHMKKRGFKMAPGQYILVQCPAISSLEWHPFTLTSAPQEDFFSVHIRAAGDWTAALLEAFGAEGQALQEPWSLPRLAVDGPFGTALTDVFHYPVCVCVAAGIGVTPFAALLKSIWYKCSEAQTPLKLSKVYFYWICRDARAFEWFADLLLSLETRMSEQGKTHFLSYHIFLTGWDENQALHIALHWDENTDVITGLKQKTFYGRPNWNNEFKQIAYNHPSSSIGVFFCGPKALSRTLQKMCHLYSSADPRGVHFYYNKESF

Experiment [4] deals with T4, p22phox, yeast two-hybrid fusion (method of Luck et al., 2020) (UniProt P13498).
T4 sequence: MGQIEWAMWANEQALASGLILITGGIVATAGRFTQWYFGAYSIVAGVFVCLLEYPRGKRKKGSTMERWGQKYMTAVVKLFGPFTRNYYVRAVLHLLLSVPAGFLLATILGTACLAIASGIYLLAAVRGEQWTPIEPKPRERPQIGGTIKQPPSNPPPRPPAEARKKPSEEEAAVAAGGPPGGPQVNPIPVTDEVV

These are yes or no findings as the source states them, for the method shown. Some entries that bind do so weakly or less than the wild type. Sequences can lack the tags named with a protein.

B1: EROS, yeast two-hybrid fusion (method of Luck et al., 2020) (protein, UniProt Q9BQA9 1-187)
chain: MYLQVETRTSSRLHLKRAPGIRSWSLLVGILSIGLAAAYYSGDSLGWKLFYVTGCLFVAVQNLEDWEEAIFDKSTGKVVLKTFSLYKKLLTLFRAGHDQVVVLLHDVRDVSVEEEKVRYFGKGYMVVLRLATGFSHPLTQSAVMGHRSDVEAIAKLITSFLELHCLESPTELSQSSDSEAGDPASQS
As to B1, the binding entry in experiment [1] is listed as “binds”; in experiment [2], “no binding”; in experiment [3], “binds”; in experiment [4], “no binding”.

Values taken from PMC9767466.
